# Measurements from the supplement of paper PMC8728848.
# This is one part of the list.
# Experiments:
# Assay in all cases: glycan array binding signal (z-score within array); higher = stronger binding
# Conditions in all cases: glycan notation: IUPAC condensed, linker removed
# [1] = target: Fuc(a1-2)Gal
# Method in brief: (§1)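 Glycan array binding is given as a within-array Z-score, which can be read as non-binding when negative. The arrays, 3228 of them, came from the Consortium for Functional Glycomics database and were retained only where the protein sequence was available. Z-scores were averaged across arrays of the same protein sequence at different concentrations or buffers and across linkers.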
# [2] = target: Fuc(a1-2)Gal(b1-3)GalNAc
# Method in brief: as §1
# [3] = target: Fuc(a1-2)Gal(b1-3)GalNAc(a1-3)[Fuc(a1-2)]Gal(b1-4)Glc
# Method in brief: as §1
# [4] = target: Fuc(a1-2)Gal(b1-3)GalNAc(a1-3)[Fuc(a1-2)]Gal(b1-4)GlcNAc
# Method in brief: as §1
# [5] = target: Fuc(a1-2)Gal(b1-3)GalNAc(b1-3)Gal
# Method in brief: as §1
# [6] = target: Fuc(a1-2)Gal(b1-3)GalNAc(b1-3)Gal(a1-4)Gal(b1-4)Glc
# Method in brief: as §1
# [7] = target: Fuc(a1-2)Gal(b1-3)GalNAc(b1-4)[Neu5Ac(a2-3)]Gal(b1-4)Glc
# Method in brief: as §1
# [8] = target: Fuc(a1-2)Gal(b1-3)GlcNAc
# Method in brief: as §1
# [9] = target: Fuc(a1-2)Gal(b1-3)GlcNAc(b1-2)Man(a1-3)[Fuc(a1-2)Gal(b1-3)GlcNAc(b1-2)Man(a1-6)]Man(b1-4)GlcNAc(b1-4)GlcNAc
# Method in brief: as §1
# [10] = target: Fuc(a1-2)Gal(b1-3)GlcNAc(b1-2)Man(a1-3)[Fuc(a1-2)Gal(b1-3)GlcNAc(b1-2)Man(a1-6)]Man(b1-4)GlcNAc(b1-4)[Fuc(a1-6)]GlcNAc
# Method in brief: as §1
# [11] = target: Fuc(a1-2)Gal(b1-3)GlcNAc(b1-3)Gal(b1-4)Glc
# Method in brief: as §1
# [12] = target: Fuc(a1-2)Gal(b1-3)GlcNAc(b1-3)GalNAc
# Method in brief: as §1
# [13] = target: Fuc(a1-2)Gal(b1-3)GlcNAc(b1-3)[Fuc(a1-3)[Gal(b1-4)]GlcNAc(b1-6)]Gal(b1-4)Glc
# Method in brief: as §1
# [14] = target: Fuc(a1-2)Gal(b1-3)GlcNAc(b1-3)[Gal(b1-4)GlcNAc(b1-6)]Gal(b1-4)Glc
# Method in brief: as §1
# [15] = target: Fuc(a1-2)Gal(b1-3)[Fuc(a1-4)]GlcNAc
# Method in brief: as §1
# [16] = target: Fuc(a1-2)Gal(b1-3)[Fuc(a1-4)]GlcNAc(b1-2)Man(a1-3)[Fuc(a1-2)Gal(b1-3)[Fuc(a1-4)]GlcNAc(b1-2)Man(a1-6)]Man(b1-4)GlcNAc(b1-4)GlcNAc
# Method in brief: as §1
# [17] = target: Fuc(a1-2)Gal(b1-3)[Fuc(a1-4)]GlcNAc(b1-3)[Fuc(a1-3)[Gal(b1-4)]GlcNAc(b1-6)]Gal(b1-4)Glc
# Method in brief: as §1
# [18] = target: Fuc(a1-2)Gal(b1-3)[Fuc(a1-4)]GlcNAc(b1-3)[Gal(b1-4)GlcNAc(b1-6)]Gal(b1-4)Glc
# Method in brief: as §1
# [19] = target: Fuc(a1-2)Gal(b1-4)Glc
# Method in brief: as §1
# [20] = target: Fuc(a1-2)Gal(b1-4)Glc6S
# Method in brief: as §1
# [21] = target: Fuc(a1-2)Gal(b1-4)GlcNAc
# Method in brief: as §1
# [22] = target: Fuc(a1-2)Gal(b1-4)GlcNAc(b1-2)Man(a1-3)[Fuc(a1-2)Gal(b1-4)GlcNAc(b1-2)Man(a1-6)]Man(b1-4)GlcNAc(b1-4)GlcNAc
# Method in brief: as §1
# [23] = target: Fuc(a1-2)Gal(b1-4)GlcNAc(b1-2)Man(a1-3)[Fuc(a1-2)Gal(b1-4)GlcNAc(b1-2)Man(a1-6)]Man(b1-4)GlcNAc(b1-4)[Fuc(a1-6)]GlcNAc
# Method in brief: as §1
# [24] = target: Fuc(a1-2)Gal(b1-4)GlcNAc(b1-2)[Fuc(a1-2)Gal(b1-4)GlcNAc(b1-4)]Man(a1-3)[Fuc(a1-2)Gal(b1-4)GlcNAc(b1-2)Man(a1-6)]Man(b1-4)GlcNAc(b1-4)GlcNAc
# Method in brief: as §1
# [25] = target: Fuc(a1-2)Gal(b1-4)GlcNAc(b1-3)Gal(b1-4)GlcNAc
# Method in brief: as §1
# [26] = target: Fuc(a1-2)Gal(b1-4)GlcNAc(b1-3)Gal(b1-4)GlcNAc(b1-3)Gal(b1-4)GlcNAc
# Method in brief: as §1
# [27] = target: Fuc(a1-2)Gal(b1-4)GlcNAc(b1-3)GalNAc
# Method in brief: as §1
# [28] = target: Fuc(a1-2)Gal(b1-4)GlcNAc6S
# Method in brief: as §1
# [29] = target: Fuc(a1-2)Gal(b1-4)[Fuc(a1-3)]GlcNAc
# Method in brief: as §1
# [30] = target: Fuc(a1-2)Gal(b1-4)[Fuc(a1-3)]GlcNAc(b1-2)Man(a1-3)[Fuc(a1-2)Gal(b1-4)[Fuc(a1-3)]GlcNAc(b1-2)Man(a1-6)]Man(b1-4)GlcNAc(b1-4)GlcNAc
# Method in brief: as §1
binder,measurement,setting,value
Gal 3 (Canis lupus) (protein) MADSFSLNDALSGSGNPNPQGWPGPWGNQPAGAGGYPGASYPGAYPGQAPPGGYPGQAPPGGYPGQAPPGGYPGQAPPGGYPGQAPPGGYPGQAPPGTYPGPTAPAYPGPTAPGTQPGQPSGPGAYPPPGQPSAPGAYPAAGPFGIPAGPLTVPYDLPLPGGVKPRMLITILGTVRPSANRLALDFKRGNDVAFHFNPRFNEDNKRVIVCNTKLDNIWGKEERQAAFPFESGKPFKIQVLVESDHFKVAVNDAHLLQYNHRMKNLPEISKLGISGDIDLTSASYAMI,glycan array binding signal (z-score),[1],-0.258
same,glycan array binding signal (z-score),[2],-0.258
same,glycan array binding signal (z-score),[3],-0.248
same,glycan array binding signal (z-score),[4],-0.113
same,glycan array binding signal (z-score),[5],-0.269
same,glycan array binding signal (z-score),[6],-0.264
same,glycan array binding signal (z-score),[7],-0.26
same,glycan array binding signal (z-score),[8],-0.171
same,glycan array binding signal (z-score),[9],-0.178
same,glycan array binding signal (z-score),[10],-0.159
same,glycan array binding signal (z-score),[11],0.067
same,glycan array binding signal (z-score),[12],-0.159
same,glycan array binding signal (z-score),[13],-0.134
same,glycan array binding signal (z-score),[14],-0.147
same,glycan array binding signal (z-score),[15],-0.274
same,glycan array binding signal (z-score),[16],-0.219
same,glycan array binding signal (z-score),[17],-0.25
same,glycan array binding signal (z-score),[18],-0.193
same,glycan array binding signal (z-score),[19],-0.244
same,glycan array binding signal (z-score),[20],-0.225
same,glycan array binding signal (z-score),[21],-0.189
same,glycan array binding signal (z-score),[22],0.463
same,glycan array binding signal (z-score),[23],-0.156
same,glycan array binding signal (z-score),[24],-0.147
same,glycan array binding signal (z-score),[25],1.56
same,glycan array binding signal (z-score),[26],2.25
same,glycan array binding signal (z-score),[27],-0.198
same,glycan array binding signal (z-score),[28],0.095
same,glycan array binding signal (z-score),[29],-0.259
same,glycan array binding signal (z-score),[30],-0.201
